The campaign covered roughly 46,000 compounds. About 60 (0.1%) were called active. Inconclusive results (about 3%) are left out. Calls come from the whole dose curve; as a rule, active = well fitted inhibition curve with a large enough effect; inconclusive = small, poorly fitted or top-dose-only effect; inactive = no such curve, though single readings can be large or run the other way. The list shows a part of the results.
assay: Primary qHTS assay for Inhibitors of ovarian cancer metastasis using an organotypic tumor microenvironment (TME) model.; note: nearly all actives have a fitted effect of over 65% in size;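 for activity change, negative = inhibition: plate controls were DMSO wells for no effect and tomatine positive control wells for full effect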; conditions: SKOV3ip1-GFP adhesion/invasion on 3D omental model, fluorescence; series mostly up to 45.8 µM; activity change, negative = inhibition: at the top concentration
Outline: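 A 3D layer of primary human omental fibroblasts, mesothelial cells, fibronectin and collagen I, grown 48 hr, received SKOV3ip1-GFP cells in serum-free medium plus compounds at 0.36-46 umol/L. After 2 hr RT and 16 hr 37 C, fixed adherent GFP cells were counted; normalized to DMSO and tomatine.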

Activity change, negative = inhibition, inactive:
Cc1cccc(NC(=O)C2CCN(S(=O)(=O)c3ccc4c(c3)CCCN4C(=O)C3CCC3)CC2)c1 3.51%
CCCCCCCc1ccc(CCc2cccc(O)c2C(=O)O)cc1 11.3%
COCCCn1c(=O)c2sccc2n2c(CCCC(=O)NC3CCC(C)CC3)nnc12 (centres undefined) -0.231%
CCCn1cc(S(=O)(=O)c2cc(C)ccc2C)c(=O)c2cc(F)c(N3CCN(CC)CC3)cc21 -10.2%
CCCN1CCN(CCCNC(=O)Cn2nc(C)n3c(cc4c(OC)cccc43)c2=O)CC1 -9.67%
CC(C)(N)C(=O)N[C@H](COCc1ccccc1)C(=O)N1CCC2(CC1)CN(S(C)(=O)=O)c1ccccc12 24.4%
Cc1ccc(NC(=O)CSc2nc3ccc(NC(=O)CCc4ccccc4)cc3s2)cc1 4.78%
COc1cc(NC(=O)CSc2nc(-c3ccc(C(C)C)cc3)no2)cc(OC)c1 -5.41%
COc1ccc(C(=O)N(Cc2ccc(N(C)C)cc2)CC2CCCO2)cc1 (centres undefined) -4.69%
COC(=O)C=CC(=O)OC 14.6%
Cc1ccc(C)c(N2CCN(S(=O)(=O)c3cn(C)c(C)n3)CC2)c1 -10.8%
CCC(C)n1c(=N)c(C(=O)NC2CCCCC2)cc2c(=O)n3ccccc3nc21 (centres undefined) 30%
CC(=O)Nc1ccc2nc(NC(=O)CS(=O)(=O)c3ccc(C)cc3)sc2c1 -5.38%
Cc1ccc(NC(=O)Cn2cnc3c2c(=O)n(C)c(=O)n3C)cc1C 2.96%
COc1cc(Cl)c(C)cc1NC(c1ccccc1)c1nnc(-c2ccccc2Cl)o1 (centres undefined) -3.98%
Cc1ccccc1CNC(=O)c1ccc2nc(C(C)C)oc2c1 1.09%
Cc1ccc(CNC(=O)c2cc3ccc4cccnc4c3[nH]2)cc1 19.5%
O=C(c1cccc(Cl)c1)N1c2ncnn2C2(CCCCC2)[C@@H]2CCCC[C@@H]21 -0.643%
Cc1ccc(Cl)cc1NC(=O)CCc1c(C)nc2c3cccnc3nn2c1C -0.176%
Cc1ccc2c(=O)cc(C(=O)Nc3sc4c(c3C(=O)NCC3CCCO3)CCCC4)oc2c1C (centres undefined) 7.73%
CC(C)(C)OC(=O)N1CCC(c2c(C(=O)NCCN3CCOCC3)cnn2-c2ccc(F)cc2)CC1 -5.26%
COc1ccc(-c2ccc3c(N)c(C(=O)NCc4ccc(C)cc4)sc3n2)cc1 28.9%
Cc1ccc2c(c1)N(C(=O)N1CCC(C(=O)NCCc3ccccc3)CC1)CC(C)O2 (centres undefined) -34.1%
COc1ccc(N2Cc3cccc(C(=O)Nc4ccc(Cl)cc4)c3C2=O)cc1 1.98%
CCC(C=C[C@@H]1OC(=O)C=C[C@H]1C)=C[C@H](C)CC=CC(C)=C[C@@H](C)C(=O)[C@@H](C)[C@H](O)[C@@H](C)CC(C)=CC(=O)O -12.7% [at 1.72 µM]
CCOc1ccc(-c2nonc2NC(=O)c2oc3cc(C)ccc3c2C)cc1OCC -8%
O=C(COc1ccc(F)cc1)Nc1nnc(SCc2cc(=O)n3ccccc3n2)s1 8.8%
Cc1ccc(CN(Cc2ccco2)C(=O)COc2cccc(C)c2C)o1 -8.34%
CCOC(=O)C1CCCN(C(=O)c2ccc3c(c2)sc2nc(-c4ccc(C)cc4C)cn23)C1 (centres undefined) -2.3%
COc1cccc(Cn2c(SCc3ccc(C(=O)N4CCCCC4)cc3)nc3ccncc32)c1 12.5%
O=C(Nc1nc2n(n1)C(c1ccccc1)C=C(c1ccc(Cl)cc1)N2)c1ccco1 (centres undefined) -7.42%
O=C(COc1ccc([N+](=O)[O-])cc1)N1CCC(c2nc3ccccc3s2)CC1 -23.9%
COc1cc([C@H]2Oc3cc([C@H]4Oc5cc(O)cc(O)c5C(=O)[C@H]4O)ccc3O[C@H]2CO)ccc1O 16.3%
CCOc1cccc2sc(N3CCN(C(=O)C(C)(C)C)CC3)nc12 -2.81%
Cc1nc(N2CCOCC2)c2c(C(=O)N(C)Cc3ccccc3)c(C)oc2n1 5.21%
O=C(Cn1nc(-c2ccccc2)c2cnc3ccc(F)cc3c21)NC1CCCC1 -3.45%
CCOC(=O)C1CCN(c2cc(C)nc3c(-c4ccccc4OC)c(C)nn23)CC1 10.7%
O=C(Nc1nnc(S(=O)(=O)N2CCCCCC2)s1)c1ccccc1F -1.84%
CCCCNc1nc(Oc2ccc(=O)n(-c3ccccc3)n2)nc(N(CC)CC)n1 -0.343%
Cc1ccc(-c2nnc(SCC(=O)N3CCCc4ccccc43)o2)cc1 -5.39%
O=C(Nc1ccc(Cl)cc1)N1CCC(CN2CCCCCC2)CC1 12.9%
COc1cccc(Cn2ccn(-c3ccc(F)cc3)c(=O)c2=O)c1 -0.573%
Cc1ccc(C(=O)c2oc3ccccc3c2NC(=O)c2cc(=O)c3cc(C)ccc3o2)cc1 0.173%
COC(=O)c1ccc(-n2nnc(-c3nc(-c4ccccc4Cl)no3)c2C)cc1 -0.488%
CCNC(=O)C1CCCN(c2ncnc3onc(C)c23)C1 (centres undefined) 3.08%
Cc1cccc(Cn2c(SCc3ccc(C(=O)NCc4ccccc4)cc3)nc3cccnc32)c1 -19.9%
COc1ccc(CNC(=O)CCc2c(C)c3ccc(OC)c(C)c3oc2=O)cc1OC 2.61%
COc1ccc(NC(=O)Cn2cc(C(=O)c3ccncc3)c(=O)c3cc(C)ccc32)cc1Cl 2.96%
CCOC(=O)c1c(NC(=O)COc2ccc(CC)cc2)sc2c1CCCC2 22.3%
COc1ccc(-n2c(=O)[nH]c3cc(C(=O)NCCc4ccc(Cl)cc4)ccc3c2=O)cc1OC -7.65%
Cc1ccc(OCC(=O)Nc2ccc3c(c2)sc(=O)n3C)cc1 -0.395%
Cc1nc2ccn(Cc3ccco3)c(=O)c2cc1C(=O)Nc1ccc(F)cc1 9.02%
CN1CCN(C(=O)Cn2c(-c3cccs3)cc3ccccc32)CC1 0.0919%
COc1cc(OC)cc(C(=O)Nc2ccc(-c3nc4ccccc4s3)c(C)c2)c1 1.15%
Cc1nn(C)c2c1c(C(F)(F)F)cc(=O)n2C(C)C(=O)NCCC(C)C (centres undefined) 17.1%
CCCNC(=O)c1ccc2c(c1)nc(C)n2-c1cccc(C)c1 -3.83%
Cc1ccc2c(=O)c(C(=O)c3ccccc3)cn(CC(=O)Nc3ccc(C)c(Cl)c3)c2n1 -0.568%
COc1ccc(NC(=O)C(NC(=O)C2CCC(C)CC2)C(C)C)cc1 (centres undefined) 8.28%
CCC(Sc1ncccc1C(=O)Oc1ccccc1Cl)C(=O)Nc1ccccc1OC (centres undefined) -2.62%
Cc1ccc(-c2nc(C(=O)N3CCN(c4ccccc4)CC3)c3n2CCCCC3)cc1 13.7%
CCS(=O)(=O)N1CCc2cc(C(=O)Nc3cc([N+](=O)[O-])ccc3C)ccc21 -15.5%
O=C(Nc1ccc(OC(F)(F)F)cc1)c1cc2c(=O)n3ccccc3nc2s1 6.53%
Cc1ccc(-n2c(SCC(=O)N3CCc4ccccc43)nc3c([nH]c4ccccc43)c2=O)cc1 3.11%
CCn1cc2nc(SCC(=O)Nc3cc(OC)ccc3OC)n(Cc3ccc(Cl)cc3)c(=O)c2n1 -0.707%
COc1cc(C2c3c(-c4cc(C)ccc4O)n[nH]c3C(=O)N2Cc2cccnc2)cc(OC)c1OC (centres undefined) 0.367%
Cn1c(=O)c(=O)n(C)c2cc(S(=O)(=O)N3CCCC3C(=O)Nc3cccc(F)c3)ccc21 (centres undefined) 1.29%
COc1ccc(C(=O)Nc2ccc3nc(SCC(=O)N4CCCC4)sc3c2)cc1 -5.83%
CCCC(=O)Nc1nnc(SCc2cc(=O)n3ccccc3n2)s1 -1.4%
COc1ccccc1CCNC(=O)Cn1ccc2cc(S(=O)(=O)N3CCCCC3)ccc21 -1.03%
O=C(CCn1c(=O)c2cccn2c2cccnc21)N1CCN(c2ccc(F)cc2)CC1 3.64%
Cc1ccccc1Cn1c(-c2cccs2)nc2ccccc21 -0.255%
COc1ccc(-c2noc(CN(C(=O)c3ccccc3Cl)C(C)C)n2)cc1 2.82%
CCCCn1c(CN2CCN(c3ccc(OC)cc3)CC2)nc2c1c(=O)[nH]c(=O)n2C 14.8%
Cc1cccc(NC(=O)CSc2nnc(CNC(=O)c3cccc(C)c3)n2-c2ccccc2)c1 6.74%
Cc1ccc(CNC(=O)C2CCN(Cc3nc(-c4ccccc4C)oc3C)CC2)cc1 2.88%

outcome, inactive:
CCOC(=O)c1c(S(=O)(=O)NCC(=O)NCc2ccccc2Cl)c(C)n(C)c1C
CCN1CCN(Cc2c(O)ccc3c(=O)c(Oc4ccccc4C(C)C)c(C(F)(F)F)oc23)CC1
COc1ccc(NC(=O)CSc2cn(CCNC(=O)c3c(F)cccc3F)c3ccccc23)cc1
COc1ccc(C2=Nc3ccc(OC(F)(F)F)cc3NC(c3cccnc3)=N2)cc1
CCN(C(=O)Cn1c(=O)n(Cc2ccccc2)c(=O)c2c1c1cc(OC)ccc1n2C)c1ccccc1
COc1ccc(-c2noc(-c3ccc(NC4CCCC4)c([N+](=O)[O-])c3)n2)cc1OC
Cc1cc(Cl)ccc1NC(=O)CN1C(=O)COc2ccc(S(=O)(=O)Nc3ccccc3)cc21
CC(C)(CC(=O)OCC(=O)Nc1ccccc1F)CC1=NS(=O)(=O)c2ccccc2N1
CCOC(=O)Cn1c(=O)c2c(nc(N3CCOCC3)n2Cc2ccccc2)n(C)c1=O
COc1cc(NC(=O)c2ccc3c(Cl)c4c(nc3c2)CCC4)cc(OC)c1OC
CC(=O)c1cccc(-n2c(=O)c3c4c(sc3n(CC(=O)Nc3ccccc3F)c2=O)CN(C(C)=O)CC4)c1
Cc1cc(NC(=O)c2cc(-c3ccc(Br)cc3)on2)nn1Cc1ccc(Cl)cc1
CCOc1ccc(N(C(C)C(=O)NCCSc2ccc(Cl)cc2)S(C)(=O)=O)cc1 (centres undefined)
Cc1cc(NC(=O)CSc2nc3c([nH]c4ccccc43)c(=O)n2-c2ccccc2F)no1
Cc1ccc(NC(=O)c2nnn(Cc3cccc(C(F)(F)F)c3)c2N)c(C)c1
COc1ccc(NC(=O)Cn2nc(-c3ccccc3)c3cnc4ccc(C)cc4c32)cc1
Cc1ccc(N2C(=O)CS(=O)(=O)C23C(=O)N(Cc2ccccc2C)c2ccccc23)cc1Cl (centres undefined)
CCOc1ccccc1NC(=O)c1ccc2c(c1)CCN2S(C)(=O)=O
O=C(NC1CCCCC1)c1ccc2c(c1)N(Cc1ccccc1F)C(=O)c1ccccc1S2
